The values that follow come from article PMC9911399, “Two distinct binding modes provide the RNA-binding protein RbFox with extraordinary sequence specificity”.

Changes are numbered by the printed parent chain; changes in the protein carry UniProt numbers. The list shows a part of the results.

Sequences and labels used below:
B1: CACAGGA (DNA:RNA)
RNA: GGGAGACCGGAAUUCAGAUUGUCCCACAGGAUUAAAUCCCGUCGUAGCCACCA
DNA 1: CAATCTGAATTCCGGTCTCCC
DNA 2: TGGTGGCTACGACGGGATT
B2: CUGACGU (DNA:RNA)
RNA: B1 RNA with A26U, C27G, G29C, A31U
DNA 1: CAATCTGAATTCCGGTCTCCC
DNA 2: TGGTGGCTACGACGGGATT
B3: UCAUUAG (DNA:RNA)
RNA: GGGAGACCGGAAUUCAGAUUGUCCUCAUUAGUUAAAUCCCGUCGUAGCCACCA
DNA 1: CAATCTGAATTCCGGTCTCCC
DNA 2: TGGTGGCTACGACGGGATT
B4: AGUAGAG (DNA:RNA)
RNA: B1 RNA with C25A, A26G, C27U, G30A, A31G
DNA 1: CAATCTGAATTCCGGTCTCCC
DNA 2: TGGTGGCTACGACGGGATT
B5: UUACUCC (DNA:RNA)
RNA: B3 RNA with C26U, U28C, A30C, G31C
DNA 1: CAATCTGAATTCCGGTCTCCC
DNA 2: TGGTGGCTACGACGGGATT
B6: UGCAGGU (DNA:RNA)
RNA: B1 RNA with C25U, A26G, A31U
DNA 1: CAATCTGAATTCCGGTCTCCC
DNA 2: TGGTGGCTACGACGGGATT
B7: UUUGUUG (DNA:RNA)
RNA: B3 RNA with C26U, A27U, U28G, A30U
DNA 1: CAATCTGAATTCCGGTCTCCC
DNA 2: TGGTGGCTACGACGGGATT
B8: GGAUGGG (DNA:RNA)
RNA: B3 RNA with U25G, C26G, U29G, A30G
DNA 1: CAATCTGAATTCCGGTCTCCC
DNA 2: TGGTGGCTACGACGGGATT
B9: GAUUAAU (DNA:RNA)
RNA: B3 RNA with U25G, C26A, A27U, U29A, G31U
DNA 1: CAATCTGAATTCCGGTCTCCC
DNA 2: TGGTGGCTACGACGGGATT

The assay addresses T1, RBFOX1 RRM RbFoxmut (Fox-RRM*) (Homo sapiens, UniProt Q9NWB1 109-208, R118D;E147R;N151S;E152T).
T1 sequence: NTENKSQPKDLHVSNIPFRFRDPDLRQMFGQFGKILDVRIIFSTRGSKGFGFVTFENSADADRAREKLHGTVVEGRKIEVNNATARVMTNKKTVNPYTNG
The assay can be described thus: EMSA; HiTS-Eq, 1 nM pool, 10 min; buffer printed only for the single-RNA assays: 10 mM Tris pH 7.5, 150 mM NaCl, 3.4 mM EDTA, 0.001% NP-40, 30 C. Conditions: tags: His6 N-terminal (pET28a); label: 5' 32P. Put shortly: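 Relative association constants, normalised to the cognate motif, were derived by comparing read counts of each RNA species with those of the control reaction. The RNA sequenced was the free fraction, separated by 8% native PAGE after a 10 min equilibration in 50 µL of 1 nM 5′-radiolabelled RNA (7 randomized nucleotides) with increasing concentrations of purified wild-type or mutant RbFox RRM.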
On to B1, for which the binding signal was 0.0812 KA relative to UGCAUGU.
As to B2, the binding signal is 0.0725 KA relative to UGCAUGU.
As for B3, the figure is 0.155 KA relative to UGCAUGU.
As for B4, the figure is 0.127 KA relative to UGCAUGU; as for B5, 0.0741 KA relative to UGCAUGU.
As for B6, the figure is 0.126 KA relative to UGCAUGU; as for B7, 0.19 KA relative to UGCAUGU; as for B8, 0.085 KA relative to UGCAUGU.
Regarding B9, the binding signal was 0.0998 KA relative to UGCAUGU.
